Results published in the RNAGym collection of RNA variant scans (doi:10.1073/pnas.2313332121).
Variants at the background level are over-represented here.

B1: TPR 5TU (parent)
chain: GGAUCUUCUCGAUCUAACAAAAAAGACAAAUCUGCCACAAAGCUUGAGAGCAUCUUCGGAUGCAGAGGCGGCAGCCUUCGGUGGCGCGAUAGCGCCAACGUUCUCAACUAUGACACGCAAAACGCGUGCUCCGUUGAAUGGAGUUUAUCAUG

Variants of: B1
Experiment: polymerase ribozyme fitness, log enrichment relative to wild type (log ratio); higher = more active; in vitro selection for triplet polymerase activity
How it was run: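 In triplicate, a single round of in vitro selection was run on each mutant library, PCR-built and transcribed, covering one subunit of a heterodimeric triplet polymerase ribozyme. Frozen incubation at −7 °C followed annealing with a biotinylated primer, partner subunit and triplets, and extended constructs were then gel-excised, streptavidin-captured and taken through RT-PCR. Fitness is the logarithm of genotype enrichment over wild-type enrichment, from inverse-variance-weighted replicate averages of Illumina-sequenced inputs and outputs. […] only genotypes with ≥10 input reads and ≥1 read per output were kept.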

Polymerase ribozyme fitness (log ratio), ≤ -4.2:
GGAUCUUCUCGAUCUAACAAAAAAGACAUAGCUGCCACAAAGCUUGAGAGCAUCUUCGGAUGCAGAGGCGGUAGCCUUCGGUCGCGCGAUAGCGCCAACGUUCUCAACUAUGACACGCAAAACGCGUGCUCCGUUGAAUGGAGUUUAUCAUG [A29U U31G C72U G83C]
GGAUCUUCUCGAUCUAACAAAAAAGACAUAUCUGCCACAAAGCUAGAGAGCAUCUUCGGAUGCAGAGGCGGCAGCCUUCGGUGGCGCGAUAGCCCCAACGUUCUAAACUAUGUCACGCAAAACGCGUGCGCCGUGGAAUGGAGUUUAUCAUG [A29U U45A G94C C105A A113U U130G U135G]
GGAUCUUCUCGAUCUAACAAAAAAGACAUAUCUGCCACAAAGCUUGAGAGCAUCUUCGGAUGCAGAGGCGGCAGCCUUCGGUGGCAUGAUAGCGCCAACGUUCUAAACUAUGACAAGCAAAACGCGUGCUCCGUUGAAUGGAGUUAAUCAUG [A29U G86A C87U C105A C116A U146A]
GGAUCUUCUCGAUCUAACAAAAAAGACAUAUCUGCCACAAAGCUUGAGAGCAUCUUCGGAUGCAGAGGCGGCAGCCUUCGGUGGCGCGAUACCGCCAACGUCCUCAACUAUGACAUGCAAAACGCGUGCUCCGUUGAAUGGAGUUUAUCAUG [A29U G92C U102C C116U]
GGAUCUUCUCGAUCUAACAAAAAAGACAUAUCCGCCACAAAGCUUGAGAGCAUCUUCGGAUGCAGAGGCGGCAGCCUUCGGUGGCGCGAUAGCUCCAACGUUCUUAACUACGACACGCAAAACGCGUGCUCCGUUAAAUGGAGUUUAUCAUG [A29U U33C G94U C105U U111C G136A]
GGAUCUUCUCGAUCUAACAAAAAAGACAUAUCUGCCACAAAGCUGGAGAGCAUCUUCGGAUGCAGAGGUCGCAGCCUUCGGUGGCGAGAUAGCGCCAACGUUCUCAACUAUGAUACGCAAAACGCGUGCUCCGUUGAAUGGAGUUUAUCAUG [A29U U45G C69U G70C C87A C114U]
GGAUCUUCUCGAUCUAACAAAAAAGACAUAUCUGCCACAAAGCUUGAGAGCAUCUUCGGAUGCAGAGGCGGCAGCCUUCGGUGGCGCGAUAGCUCCAACGUUCUCAACUAUGACACGCAAAACGCGUGCUCCGUUGAAUGGAGUUUAUGAUG [A29U G94U C149G]
GGAUCUUCUCGAUCUAACAAAAAAGACAUAUCUGCCACAAAGCUUGAGAGCAUCUUCUGAUGCAGAGGCGGCAGCCUUGGGUGGCGCGAUAGCGCCAAUGUUCUCAACUAUGACACGCAAAACGCGUGCUCCGUUGAAUGCAGUUUAUCAUG [A29U G58U C79G C99U G141C]
GGAUCUUCUCGAUCUAACAAAAAAGACAUAUCUGCCACAAAGCUUGAGAGCAUCUUCGGAUGCAGAGACGGCAGCCUUCGGUAGCGCGAUAGCGCCAACGUUGUCAACUAUGACACGCAAAACGCGUGCUCCGUUGAAUGGAGUUUAUCAUG [A29U G68A G83A C103G]
GGAUCUUCUCGAUCUAACAAAAAAGACAUAUCUGCCACAAAGCUUGAGAGCAUCUUCGGAUGCAGAGGCGGCAACCUUCGGUGGCGCGAUAGCGCCAACGUUCUCAACUAUGACACGCAAAACGCGUGCUACGUUGAAUGGAGUUUAGCAUG [A29U G74A C131A U148G]
GGAUCUUCUCGAUCUAACAAAAAAGACAUAUCAGCCACAAAGCUUGAGAGCAUCUUCGGAUGCAGAGGCGGCAGCCUUCGGUGGCGCGAUAGCGCCAACGUGCUCAACUAUGUCACGCAAAACGCGUGCUCCGUUGAAUGGAGCUUAUCAUG [A29U U33A U102G A113U U144C]
GGAUCUUCUCGAUCUAACAAAAAAGACAUAUCGGCCAAAAAGCUUGAGAGCAUCUUGGGAUGCAGAGGCGGCAGCCUUCGGUGGCGCGAUAGCGCCAACGUUCUCAACUAUGACACGCAAAACGCGUGCUCCGUUGAAUGGAGUUUAUCAUG [A29U U33G C38A C57G]
GGAUCUUCUCGAUCUAACAAAAAAGACAUAUCUGCCACAAAGCUUGAGAGCAUCUUCGGAUGCAGAGGCGGCAUCCUUCGGUGGCGCGACAGCGCUAACGUUCUCAACUAUGACACGCAUAACGCGUGCUCCGUUGAAUGGAGUUUAUCAUG [A29U G74U U90C C96U A120U]
GGAUCUUCUCGAUCUAACAAAAAAGACAUAUCUGCCACAAAGCUUGAGAGCAUCUUCGGAUGCAGAGGCGGCAGCCUUCGGUAGCGCGAUAGCGCCUACGUUCUCAACUAUGACACGCAAAACGCGUGCUCCGGUGAAUGGAGUUUAUCAUG [A29U G83A A97U U134G]
GGAUCUUCUCGAUCUAACAAAAAAGACAUAUCUGCCACAAAGCUUGAGAGCAUCUUCGGAUGCAGAGGCUACAGCCUUCGGUGGCGUGAAAGCGCCAACGUUCUCUACUAUGACACGCAAAACGCGUGCUCCGUUGAAUGGAGUUUAUCAUG [A29U G70U G71A C87U U90A A106U]
GGAUCUUCUCGAUCUAACAAAAAAGACAUAUCUGCCACAAAGCUUGAGAGCAUCUUCGGAUGCAGAGGCGGCAGCCUUCGGUAGCGCGAUAGAGCCAACGUUCUCAACUAUGACACGCAAAACGCGUGCUCCGUUGAAUGGAGUUUAUCAUU [A29U G83A C93A G152U]
GGAUCUUCUCGAUCUAACAAAAAAGACAUAUCCGCCACAAAGCUUGAGAGCCUCUUCGGAUGCAGAGGCGGCAGCCUUCGGUGGCACGAUAGCGCCAACGUUCUCAACUAUGACACGCAAAACGCGUGCUCCGUUGAAUGGAGUUUAUCAUG [A29U U33C A52C G86A]
GGAUCUUCUCGAUCUAACAAAAAAGACAUAUCUGCCACAAAGCUUGAGAGCAUCUUCGGAUGCAGAAGCGGCACCCUUAGGUGGCGCGAUCGCGCCAACGUUCUCAGCAAUGACAAGCAAAACGCGUGCUCCGUUGAAUGUAGUUUAUCAUG [A29U G67A G74C C79A A91C A107G U109A C116A G141U]
GGAUCUUCUCGAUCUAACAAAAAAGACAUAUCUGCCACAAAGCUUGAGAGCAUCUUCGGAUGCAGAGGCGGCAGCCUUCGGUGGCACGAUAGCGCCGACGUUCUCAACUAUGACACGCAAAACGCGUGCUCCGUUGAAUGGUAUUUAUCAUG [A29U G86A A97G A142U G143A]
